{
  "source": "PubChem BioAssay AID1460",
  "about": "(National Center for Advancing Translational Sciences (NCATS), 2008)",
  "note": "Values joined by “and” are separate entries in the source; they are usually repeats but may differ in a detail not shown here. Equal entries are not always repeated. The campaign covered roughly 270,000 compounds. About 5,800 (2.1%) were called active. The shares of active, inactive and inconclusive entries below differ from those in the screen. The call rests on the fitted dose curve; in most records, active means well fitted inhibition curve with a large enough effect; inconclusive means small, poorly fitted or top-dose-only effect; inactive means flat fitted curve, though single readings scatter. Potencies of inconclusive entries are doubtful fits and often do not repeat. On the % scale 0 is the no-effect control and ±100 the full control effect; potency means the concentration at half of the fitted maximal effect; tags describe the fitted curve by direction and shape.",
  "data": [
    {"target": "Microtubule-associated protein tau (Homo sapiens) (UniProt P10636)", "sequence (P10636 whole entry, looked up, the tested form may be a part)": "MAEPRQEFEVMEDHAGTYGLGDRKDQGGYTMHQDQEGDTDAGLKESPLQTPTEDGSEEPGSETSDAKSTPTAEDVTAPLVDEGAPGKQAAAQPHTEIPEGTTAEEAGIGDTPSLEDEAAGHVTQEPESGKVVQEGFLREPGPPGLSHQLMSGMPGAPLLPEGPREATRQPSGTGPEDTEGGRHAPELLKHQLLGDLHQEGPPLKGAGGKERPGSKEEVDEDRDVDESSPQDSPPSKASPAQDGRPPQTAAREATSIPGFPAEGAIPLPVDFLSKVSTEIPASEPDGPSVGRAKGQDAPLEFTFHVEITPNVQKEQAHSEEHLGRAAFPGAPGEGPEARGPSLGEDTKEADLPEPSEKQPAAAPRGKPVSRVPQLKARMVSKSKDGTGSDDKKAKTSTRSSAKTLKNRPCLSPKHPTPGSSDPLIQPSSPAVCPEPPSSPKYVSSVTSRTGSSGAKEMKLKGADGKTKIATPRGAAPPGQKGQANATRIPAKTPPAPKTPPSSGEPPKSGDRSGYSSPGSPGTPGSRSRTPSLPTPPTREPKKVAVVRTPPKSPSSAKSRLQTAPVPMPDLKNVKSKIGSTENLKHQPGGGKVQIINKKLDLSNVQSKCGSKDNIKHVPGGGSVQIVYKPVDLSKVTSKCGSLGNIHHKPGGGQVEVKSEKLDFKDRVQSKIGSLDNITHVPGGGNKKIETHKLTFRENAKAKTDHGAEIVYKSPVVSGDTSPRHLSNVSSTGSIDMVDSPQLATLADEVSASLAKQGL", "assay": "qHTS for Inhibitors of Tau Fibril Formation, Thioflavin T Binding; further: nearly all actives have a fitted effect of over 55% in size", "conditions": "recombinant tau K18 P301L (four-repeat tau fragment), heparin-induced fibrillization, ThT fluorescence; series mostly up to 57.4 µM; activity, negative = inhibition: at the top concentration", "how_it_was_run": "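In this qHTS, human K18 P301L tau is incubated with compound and heparin for 6 hr at 37 C, and Thioflavin T fluorescence then reports fibril load.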", "values": [
      {"smiles": "O=C1NC(=S)N/C1=C/c1cc([N+](=O)[O-])ccc1N1CCOCC1", "Potency": "inconclusive: 28.2 µM [inhibitor, single point]"},
      {"smiles": "CCOc1ccc(C(=O)c2cn(CC(=O)Nc3ccc4c(c3)OCCO4)c3ccc(F)cc3c2=O)cc1", "activity, negative = inhibition": "inactive: 7.24%"},
      {"smiles": "COc1ccc2c(c1)CCc1cn3nc(C)cc3nc1-2", "Potency": "inconclusive: 12.6 µM [inhibitor, partial curve]"},
      {"smiles": "CNS(=O)(=O)c1cccc(C(=O)Nc2cccc(Cl)c2)c1", "activity, negative = inhibition": "inactive: -1.35%"},
      {"smiles": "COc1cc(CCC(=O)OCC(=O)Nc2cccc(S(=O)(=O)N(C)C)c2)cc(OC)c1OC", "activity, negative = inhibition": "inactive: -5.58%"},
      {"smiles": "CN(C(=O)CSc1nnc(-c2ccc(F)cc2)c2ccccc12)C1CCS(=O)(=O)C1", "note": "(stereo not drawn)", "Potency": "inconclusive: 35.5 µM [inhibitor, single point]"},
      {"smiles": "CCOC(=O)c1ccc(NC(=O)CSc2nc(C)cc(=O)[nH]2)cc1", "Potency": "inconclusive: 12.6 µM [inhibitor, partial curve]"},
      {"smiles": "COc1ccc(NC(=O)c2cc3n(n2)C(C(F)(F)F)CC(c2ccc4c(c2)OCO4)N3)cc1OC", "note": "(stereo not drawn)", "Potency": "inconclusive: 25.1 µM [inhibitor, partial curve]"},
      {"smiles": "COc1ccc(-n2cnc3cc(NCc4ccccn4)ccc32)cc1", "Potency": "inconclusive: 17.8 µM [inhibitor, partial curve]"},
      {"smiles": "Cc1cccc(N2CCN(C(=O)c3ccc4c(Cl)c5c(nc4c3)CCCC5)CC2C)c1", "note": "(stereo not drawn)", "Potency": "inconclusive: 25.1 µM [inhibitor, single point]"},
      {"smiles": "Cc1cc(=O)n2nc(N3CCC(C(=O)N4CCN(Cc5ccccc5)CC4)CC3)sc2n1", "Potency": "inconclusive: 10 µM [inhibitor, partial curve]"},
      {"smiles": "CC(=O)Nc1ccc(C2C(=O)c3ccccc3C2=O)cc1", "Potency": "inconclusive: 31.6 µM [inhibitor, partial curve]"},
      {"smiles": "S=C1NNC2(CC3CC2C2CCCC32)NN1", "note": "(stereo not drawn)", "Potency": "inconclusive: 39.8 µM [inhibitor, single point]"},
      {"smiles": "COc1ccc(C2C(C#N)=C(N)Oc3cc(N)ccc32)cc1OC", "note": "(stereo not drawn)", "Potency": "inconclusive: 17.8 µM [inhibitor, partial curve]"},
      {"smiles": "CCCc1cc(-c2n[nH]c(C)c2-c2ccc(C(=O)OCC)o2)c(O)cc1O", "activity, negative = inhibition": "inactive: -9.45%"},
      {"smiles": "O=C(Nc1cccc(C(F)(F)F)c1)c1cc(S(=O)(=O)N2CCCC2)c[nH]1", "activity, negative = inhibition": "inactive: -5.35%"},
      {"smiles": "O=[N+]([O-])c1ccc(Cl)c(/C=N/n2c(COc3ccccc3)n[nH]c2=S)c1", "Potency": "inconclusive: 3.55 µM [inhibitor, full curve, poor fit]"},
      {"smiles": "CSc1cc2c(cc1C(F)(F)F)N(C(=O)Nc1cccnc1)CC2", "Potency": "inconclusive: 1.26 µM [inhibitor, full curve]"},
      {"smiles": "N#CC(C#N)=Cc1ccc(OC(=O)c2ccccn2)cc1", "Potency": "inconclusive: 39.8 µM [inhibitor, single point]"},
      {"smiles": "Cc1ccc(NC(=O)c2cnc(SCC(=O)N3CCOCC3)n(C)c2=O)cc1C", "Potency": "inconclusive: 31.6 µM [inhibitor, single point]"},
      {"smiles": "O=C(CCCc1nc(-c2ccc(Cl)cc2)no1)N1CCOCC1", "Potency": "inconclusive: 31.6 µM [inhibitor, single point]"},
      {"smiles": "O=C(C1CCN(C2CC(=O)N(Cc3ccccc3)C2=O)CC1)N1CCCCCC1", "note": "(stereo not drawn)", "activity, negative = inhibition": "inactive: -5.76%"},
      {"smiles": "CCOc1ccc(C(=O)NC(=S)Nc2cccc(NC(=O)c3ccco3)c2)cc1[N+](=O)[O-]", "Potency": "inconclusive: 3.55 µM [inhibitor, full curve]"},
      {"smiles": "CC(=O)c1ccc(NC(=S)NC(=O)c2c(Cl)c(C)nn2C)cc1", "activity, negative = inhibition": "inactive: -8.57%"},
      {"smiles": "N#CC1=C(N)SC(N)=C(C#N)C1c1cccc(O)c1", "Potency": "inconclusive: 20 µM [inhibitor, partial curve]"},
      {"smiles": "O=C(Nc1c(C(=O)O)[nH]c2ccccc12)NC1CCCCC1", "Potency": "inconclusive: 39.8 µM [inhibitor, single point]"},
      {"smiles": "COc1ccc(-n2nnc(-c3nsc(NC(=O)c4ccc(C)c(C)c4)n3)c2C)cc1Cl", "Potency": "inconclusive: 1.78 µM [inhibitor, full curve]"},
      {"smiles": "Oc1ccc(/C=N/n2c3ccccc3c3ccccc32)cc1", "Potency": "active: 35.5 µM"},
      {"smiles": "CNC(=O)NC(=O)C(C)OC(=O)c1oc2ccccc2c1CSc1ccc(Cl)cc1", "note": "(stereo not drawn)", "activity, negative = inhibition": "inactive: 4.02%"},
      {"smiles": "O=C(Nc1cc(Cl)cc(Cl)c1)c1coc(=O)c(Br)c1", "Potency": "inconclusive: 12.6 µM [inhibitor, partial curve, poor fit]"},
      {"smiles": "O=C1c2ccccc2C(=O)c2cc(S(=O)(=O)Nc3ccccc3)ccc21", "Potency": "active: 22.4 µM"},
      {"smiles": "O=C(NC1CC1)c1ccc2c(c1)NC(=O)c1ccccc1S2", "activity, negative = inhibition": "inactive: -6.02%"},
      {"smiles": "COc1ccc(S(=O)(=O)N2CN(Cc3ccco3)c3nc4ccccc4nc32)cc1", "Potency": "active: 22.4 µM"},
      {"smiles": "O=C1NC2(CCc3ccccc3C2)C(=O)N1CCOc1cccc(Cl)c1", "note": "(stereo not drawn)", "activity, negative = inhibition": "inactive: -12.4%"},
      {"smiles": "Cc1ccc(C)c(N2CCN(C(=O)CCNS(=O)(=O)c3ccc4c(c3)CCN4C(=O)C3CC3)CC2)c1", "Potency": "inconclusive: 22.4 µM [inhibitor, single point]"},
      {"smiles": "O=C(C1CCC(Cn2c(=O)c3sccc3n(Cc3ccccc3)c2=O)CC1)N1CCCCC1", "note": "(stereo not drawn)", "activity, negative = inhibition": "inactive: -2.17%"},
      {"smiles": "CCN(CC)c1ccc(C(=O)N/N=C(\\C)c2ccc(O)cc2)cc1", "Potency": "inconclusive: 11.2 µM [inhibitor, partial curve]"},
      {"smiles": "Cc1cccnc1NC(N)=S", "Potency": "inconclusive: 2.82 µM [activator, partial curve]"},
      {"smiles": "C1=Nc2ccccc2CN1c1ccccc1", "activity, negative = inhibition": "inactive: 9.34%"},
      {"smiles": "CCN(Cc1ccccc1)Cc1c(O)ccc2c(=O)c(-c3ccc(Cl)cc3)coc12", "activity, negative = inhibition": "inactive: -5.01%"},
      {"smiles": "COc1ccc(C(=O)Nc2cc(OC)c(NC(=O)c3ccco3)cc2OC)cc1", "Potency": "inconclusive: 14.1 µM [inhibitor, partial curve]"},
      {"smiles": "Cc1cc2nc3c(=O)[nH]c(=O)nc-3n(C)c2cc1C=O", "Potency": "inconclusive: 22.4 µM [activator, partial curve]"},
      {"smiles": "CCN1C(C(=O)c2ccccc2)=C(OC(=O)COc2ccc(OC)cc2)c2ccccc2S1(=O)=O", "Potency": "inconclusive: 7.94 µM [inhibitor, full curve]"},
      {"smiles": "Nc1c(C(=O)NCc2cccnc2)sc(=S)n1-c1ccccc1", "activity, negative = inhibition": "inactive: -8.59%"},
      {"smiles": "S=C(NCC1CCCO1)N1CCN(c2nc(-c3ccc(Cl)cc3)cs2)CC1", "note": "(stereo not drawn)", "Potency": "inconclusive: 12.6 µM [inhibitor, partial curve]"},
      {"smiles": "CN1CCc2nc3ccccc3c(C(=O)OCC(=O)N(CCC#N)c3ccccc3)c2C1", "activity, negative = inhibition": "inactive: -17%"},
      {"smiles": "CCCn1c(N)c(C(=O)CSc2nc(C)cs2)c(=O)n(C)c1=O", "Potency": "inconclusive: 10 µM [inhibitor, partial curve]"},
      {"smiles": "COc1ccc(Cn2c(SCc3cc(C)ccc3C)nc3cc(OC)c(OC)cc3c2=N)cc1", "Potency": "inconclusive: 39.8 µM [inhibitor, single point]"},
      {"smiles": "O=c1oc2ccccc2cc1-c1csc(Nc2ccc(O)cc2)n1", "Potency": "inconclusive: 5.01 µM [inhibitor, partial curve]"},
      {"smiles": "O=C(Nc1nc2ccc(Cl)cc2s1)c1cc(=O)c2ccccc2o1", "Potency": "inconclusive: 6.31 µM [inhibitor, partial curve]"},
      {"smiles": "CCc1cccc(CC)c1NC(=O)C(Cc1ccccc1)NS(=O)(=O)c1cccc2nsnc12", "note": "(stereo not drawn)", "activity, negative = inhibition": "inactive: -4.4%"},
      {"smiles": "COc1ccc(S(=O)(=O)NCCS(=O)(=O)N2CCN(c3ccccc3)CC2)cc1OC", "activity, negative = inhibition": "inactive: -2.93%"},
      {"smiles": "Cc1cc2c3c(c1)C(C)CC(C)(C)N3C(=O)C2=C(C#N)C#N", "note": "(stereo not drawn)", "Potency": "inconclusive: 8.91 µM [inhibitor, partial curve]"},
      {"smiles": "c1ccc(N2CCN(c3nc(NCc4ccco4)c4ccccc4n3)CC2)cc1", "Potency": "inconclusive: 20 µM [inhibitor, partial curve]"},
      {"smiles": "COc1ccc2c(c1)c(CC(=O)Nc1ccc(C(C)=O)cc1)c(C)n2C(=O)c1ccc(Cl)cc1", "Potency": "inconclusive: 20 µM [inhibitor, single point] and inconclusive: 8.91 µM [inhibitor, partial curve]"},
      {"smiles": "COC(=O)c1ccc(OCC(=O)c2ccc(C)c(C)c2)cc1", "Potency": "inconclusive: 1.78 µM [inhibitor, full curve]"},
      {"smiles": "Cc1cccc2sc(NC(=O)CSc3nc4ccccc4o3)nc12", "Potency": "inconclusive: 2.82 µM [inhibitor, full curve]"},
      {"smiles": "CCOC(=O)Cn1c(=O)c(-c2ccccc2NC)nc2ccccc21", "Potency": "inconclusive: 14.1 µM [inhibitor, partial curve]"},
      {"smiles": "Cc1ccc(OCCOc2ccc(Br)cc2)c([N+](=O)[O-])n1", "Potency": "inconclusive: 15.8 µM [inhibitor, partial curve]"},
      {"smiles": "CCOC(=O)c1c(C)n(C)c2ccc(OC)c(NC(=O)c3cccs3)c12", "Potency": "inconclusive: 31.6 µM [inhibitor, single point]"},
      {"smiles": "COCCn1c(C)cc(C(=O)COc2ccc(C)nc2[N+](=O)[O-])c1C", "Potency": "inconclusive: 17.8 µM [inhibitor, partial curve]"},
      {"smiles": "C/C(N[C@@H]1CSCC1O)=C1/C(=O)CC2[C@@H]1C2(C)C", "note": "(stereo partly drawn)", "Potency": "inconclusive: 35.5 µM [inhibitor, partial curve, poor fit]"},
      {"smiles": "Cc1cc(O)ccc1N/C=C1\\CCCC1=O", "Potency": "active: 28.2 µM"},
      {"smiles": "CC(C)(C)c1ccc(C(=O)NCCC(=O)NCc2ccco2)cc1", "Potency": "inconclusive: 22.4 µM [inhibitor, partial curve]"},
      {"smiles": "O=C(CCN1C(=O)c2ccccc2Sc2ncccc21)Nc1ccc(F)cc1F", "activity, negative = inhibition": "inactive: 2.36%"},
      {"smiles": "Cc1ccsc1C(=O)OCC(=O)Nc1sccc1C(N)=O", "Potency": "inconclusive: 14.1 µM [inhibitor, partial curve]"},
      {"smiles": "O=C(O)Cn1cc(C(=S)N2CCCCC2)c2ccccc21", "Potency": "inconclusive: 25.1 µM [inhibitor, single point]"},
      {"smiles": "CNc1cc(N2CCCC2)ccc1[N+](=O)[O-]", "Potency": "inconclusive: 3.16 µM [inhibitor, partial curve]"}
    ]}
  ]
}
